# Laboratory results: the supplement of paper PMC8728848
# The full list was thinned out, with the strongest signals kept by preference.
# Assays:
# Test in all cases: glycan array binding signal (z-score within array); higher = stronger binding
# Details in all cases: glycan notation: IUPAC condensed, linker removed
# [1] = test system: Fuc(a1-3)[Gal(b1-4)]GlcNAc(b1-4)Gal(b1-4)[Fuc(a1-3)]GlcNAc(b1-4)Gal(b1-4)[Fuc(a1-3)]GlcNAc
# Summary of the method: (§1)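 Columns mapping to the same glycan were averaged after glycan names were converted to IUPAC-condensed notation. The data come from 3228 arrays in the Consortium for Functional Glycomics database, limited to those with an available protein sequence. Binding is reported as a within-array Z-score averaged across arrays of one protein sequence and across linkers.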
# [2] = test system: Fuc(a1-3)[Gal(b1-4)]GlcNAc
# Summary of the method: as §1
# [3] = test system: Fuc(a1-3)[Neu5Ac(a2-3)]Gal(b1-4)GlcNAc(b1-3)GalNAc
# Summary of the method: as §1
# [4] = test system: Fuc(a1-3)[Gal(b1-4)]GlcNAc(b1-3)GalNAc
# Summary of the method: as §1
# [5] = test system: Fuc(a1-3)[Gal(b1-4)]GlcNAc(b1-4)Gal(b1-4)[Fuc(a1-3)]GlcNAc
# Summary of the method: as §1
# [6] = test system: Fuc(a1-3)[Gal(b1-4)]GlcNAc(b1-6)[Gal(b1-3)GlcNAc(b1-3)]Gal(b1-4)Glc
# Summary of the method: as §1
# [7] = test system: Fuc(a1-3)[Gal3S(b1-4)]GlcNAc
# Summary of the method: as §1
# [8] = test system: Fuc(a1-3)[GalNAc(b1-4)]GlcNAc
# Summary of the method: as §1
# [9] = test system: Fuc(a1-3)[Gal(b1-4)]GlcNAc(b1-2)Man(a1-3)[Fuc(a1-3)[Gal(b1-4)]GlcNAc(b1-2)Man(a1-6)]Man(b1-4)GlcNAc(b1-4)[Fuc(a1-6)]GlcNAc
# Summary of the method: as §1
# [10] = test system: Fuc(a1-3)[Gal(b1-4)]GlcNAc6S
# Summary of the method: as §1
# [11] = test system: Fuc(a1-3)[Gal(b1-4)]Glc6S
# Summary of the method: as §1
# [12] = test system: Fuc(a1-2)[GalNAc(a1-4)]Gal(b1-4)GlcNAc
# Summary of the method: as §1
# [13] = test system: Fuc(a1-2)[GalNAc(b1-3)]Gal
# Summary of the method: as §1
# Fuc(a1-3)GlcNAc = test system: Fuc(a1-3)GlcNAc
# Summary of the method: as §1
# [14] = test system: Fuc(a1-3)[Gal3S(b1-4)]GlcNAc6S
# Summary of the method: as §1
# [15] = test system: Fuc(a1-3)[Gal(b1-4)]GlcNAc(b1-2)Man(a1-6)[Gal(b1-4)GlcNAc(b1-2)Man(a1-3)]Man(b1-4)GlcNAc(b1-4)GlcNAc
# Summary of the method: as §1
# [16] = test system: Fuc(a1-2)[GalNAc(a1-3)]Gal
# Summary of the method: as §1
# [17] = test system: Fuc(a1-3)[Gal(b1-4)]GlcNAc(b1-6)GalNAc
# Summary of the method: as §1
# [18] = test system: Fuc(a1-3)[Gal(b1-4)]GlcNAc(b1-2)Man(a1-3)[Fuc(a1-3)[Gal(b1-4)]GlcNAc(b1-2)Man(a1-6)]Man(b1-4)GlcNAc(b1-4)GlcNAc
# Summary of the method: as §1
# [19] = test system: Fuc(a1-3)[Gal3S(b1-4)]Glc
# Summary of the method: as §1
substance,measurement,setting,value
Collectin K1 (Homo sapiens) (chain not printed),glycan array binding signal (z-score),[1],-0.21
same,glycan array binding signal (z-score),[2],-0.209
same,glycan array binding signal (z-score),[3],2.98
M-Ficolin G221F A256V (Homo sapiens) (chain not printed),glycan array binding signal (z-score),[4],-0.345
same,glycan array binding signal (z-score),[5],-0.322
MBP (Homo sapiens) (chain not printed),glycan array binding signal (z-score),[6],-0.195
same,glycan array binding signal (z-score),[7],-0.465
same,glycan array binding signal (z-score),[8],-0.264
NCAM1 (Homo sapiens) (chain not printed),glycan array binding signal (z-score),[9],1.75
same,glycan array binding signal (z-score),[10],0.585
same,glycan array binding signal (z-score),[2],-0.212
H-Ficolin (Homo sapiens) (chain not printed),glycan array binding signal (z-score),[11],0.305
Meso764 (Homo sapiens) (chain not printed),glycan array binding signal (z-score),[12],-0.08
same,glycan array binding signal (z-score),[13],-0.748
same,glycan array binding signal (z-score),[11],0.004
same,glycan array binding signal (z-score),[9],1.43
Serum Amyloid P component (Homo sapiens) (chain not printed),glycan array binding signal (z-score),Fuc(a1-3)GlcNAc,-0.667
same,glycan array binding signal (z-score),[14],0.551
Gal 3 (Homo sapiens) (chain not printed),glycan array binding signal (z-score),[15],-0.304
same,glycan array binding signal (z-score),[2],0.029
Siglec-2 (Homo sapiens) (chain not printed),glycan array binding signal (z-score),[15],0.089
VWF (Homo sapiens) (chain not printed),glycan array binding signal (z-score),[16],6.05
same,glycan array binding signal (z-score),Fuc(a1-3)GlcNAc,-0.044
same,glycan array binding signal (z-score),[5],-0.277
FGF2 (chain not printed),glycan array binding signal (z-score),[17],1.79
M-Ficolin Y271F (Homo sapiens) (chain not printed),glycan array binding signal (z-score),[18],-0.377
same,glycan array binding signal (z-score),[6],-0.076
M-Ficolin (Homo sapiens) (chain not printed),glycan array binding signal (z-score),[12],-0.096
Gal 8 long (Homo sapiens) (chain not printed),glycan array binding signal (z-score),[10],-0.239
Gal 8-short (Homo sapiens) (chain not printed),glycan array binding signal (z-score),[5],-0.762
L-Ficolin (Homo sapiens) (chain not printed),glycan array binding signal (z-score),[11],-0.113
same,glycan array binding signal (z-score),[15],0.201
Thrombomodulin Extracellular (Homo sapiens) (chain not printed),glycan array binding signal (z-score),[16],-0.2
same,glycan array binding signal (z-score),[9],0.085
same,glycan array binding signal (z-score),[4],0.11
same,glycan array binding signal (z-score),[10],-0.691
same,glycan array binding signal (z-score),[19],-0.108
Galectin-8 C-terminal CRD (Homo sapiens) (chain not printed),glycan array binding signal (z-score),[12],-0.317
same,glycan array binding signal (z-score),[1],-0.312
same,glycan array binding signal (z-score),[5],-0.3
